The other results are listed elsewhere or left out. Rule as the data show it: active = 3.2 or more and inactive = the rest. Only a few entries rise above the background.
Target: SHP2 C-SH2 domain E139D
Assay: enrichment score (SH2-bound / input frequency) (ratio); bacterial display of known human phosphotyrosine sites (pTyr-Var adds point mutants) read by sequencing; higher = stronger binding; tyrosines were phosphorylated by kinases first
Conditions: peptide library: pTyr-Var
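Also: displayed peptides selected on beads carrying the immobilized SH2 domain, with library peptides lacking any tyrosine serving as negative controls.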

Row | Binder | enrichment score
1 | GMTLSYLFWEP [NDUFS8_Y74_R77W] | inactive: 2.47
2 | ILGRTHFVNHE [NEDD4_Y627_Y627H_YF] | inactive: 1.23
3 | EMFNPYYGLFE [NEDD4L_Y679] | inactive: 1.39
4 | EMFNPCFGLFE [NEDD4L_Y679_Y679C_YF] | inactive: 1.14
5 | EMFNPYFGLFE [NEDD4L_Y679_YF] | inactive: 1.5
6 | MFNPYYGLFEY [NEDD4L_Y680] | inactive: 2.38
7 | MFNPFYGLFEF [NEDD4L_Y680_YF] | active: 3.9
8 | FQKDVYNIPPS [NEDD9_Y177_D178N_YF] | inactive: 0.815
9 | RSFLSYYTSHV [NEFL_Y442_P440L] | inactive: 1.97
10 | RSFPSYFTSHV [NEFL_Y442_YF] | inactive: 1.42
11 | SFPSYYTSHVQ [NEFL_Y443] | inactive: 1.27
12 | SFLSFYTSHVQ [NEFL_Y443_P440L_YF] | inactive: 3.19
13 | SLFNGYVYSGV [NEIL3_Y71] | inactive: 0.945
14 | SLFNGYVYSGM [NEIL3_Y71_V76M] | inactive: 1.79
15 | SLFNGYVFSGV [NEIL3_Y71_YF] | inactive: 1.2
16 | ERNTVYSSSGV [NELL2_Y350] | inactive: 0.64
17 | GASRRYGSGVS [NEU1_Y242_W240R] | inactive: 0.203
18 | SIGLGYHKDLQ [NF1_Y1169] | inactive: 0.841

Target: SHP2 C-SH2 domain wild-type
Assay: as above
Conditions: peptide library: pTyr-Var

Row | Binder | enrichment score
19 | GMTLSYLFWEP [NDUFS8_Y74_R77W] | inactive: 2.4
20 | ILGRTHFVNHE [NEDD4_Y627_Y627H_YF] | inactive: 1.13
21 | EMFNPYYGLFE [NEDD4L_Y679] | inactive: 1.48
22 | EMFNPCFGLFE [NEDD4L_Y679_Y679C_YF] | inactive: 1.01
23 | EMFNPYFGLFE [NEDD4L_Y679_YF] | inactive: 1.16
24 | MFNPYYGLFEY [NEDD4L_Y680] | inactive: 2.18
25 | MFNPFYGLFEF [NEDD4L_Y680_YF] | inactive: 3.09
26 | FQKDVYNIPPS [NEDD9_Y177_D178N_YF] | inactive: 0.704
27 | RSFLSYYTSHV [NEFL_Y442_P440L] | inactive: 1.77
28 | RSFPSYFTSHV [NEFL_Y442_YF] | inactive: 0.827
29 | SFPSYYTSHVQ [NEFL_Y443] | inactive: 1.19
30 | SFLSFYTSHVQ [NEFL_Y443_P440L_YF] | inactive: 2.92
31 | SLFNGYVYSGV [NEIL3_Y71] | inactive: 1.58
32 | SLFNGYVYSGM [NEIL3_Y71_V76M] | inactive: 2.44
33 | SLFNGYVFSGV [NEIL3_Y71_YF] | inactive: 1.21
34 | ERNTVYSSSGV [NELL2_Y350] | inactive: 0.58
35 | GASRRYGSGVS [NEU1_Y242_W240R] | inactive: 0.299
36 | SIGLGYHKDLQ [NF1_Y1169] | inactive: 0.542

Target: SHP2 N-SH2 domain L43F
Assay: as above
Conditions: peptide library: pTyr-Var

Row | Binder | enrichment score
37 | GMTLSYLFWEP [NDUFS8_Y74_R77W] | inactive: 2.52
38 | ILGRTHFVNHE [NEDD4_Y627_Y627H_YF] | inactive: 1.33
39 | EMFNPYYGLFE [NEDD4L_Y679] | inactive: 1.23
40 | EMFNPCFGLFE [NEDD4L_Y679_Y679C_YF] | inactive: 1.01
41 | EMFNPYFGLFE [NEDD4L_Y679_YF] | inactive: 1.29
42 | MFNPYYGLFEY [NEDD4L_Y680] | inactive: 2.38
43 | MFNPFYGLFEF [NEDD4L_Y680_YF] | active: 3.95
44 | FQKDVYNIPPS [NEDD9_Y177_D178N_YF] | inactive: 0.572
45 | RSFLSYYTSHV [NEFL_Y442_P440L] | inactive: 2.79
46 | RSFPSYFTSHV [NEFL_Y442_YF] | inactive: 1.48
47 | SFPSYYTSHVQ [NEFL_Y443] | inactive: 1.3
48 | SFLSFYTSHVQ [NEFL_Y443_P440L_YF] | inactive: 2.76
49 | SLFNGYVYSGV [NEIL3_Y71] | inactive: 0.849
50 | SLFNGYVYSGM [NEIL3_Y71_V76M] | inactive: 1.49
51 | SLFNGYVFSGV [NEIL3_Y71_YF] | inactive: 1.04
52 | ERNTVYSSSGV [NELL2_Y350] | inactive: 0.677
53 | GASRRYGSGVS [NEU1_Y242_W240R] | inactive: 0.255
54 | SIGLGYHKDLQ [NF1_Y1169] | inactive: 0.708

Target: SHP2 N-SH2 domain T42A
Assay: as above
Conditions: peptide library: pTyr-Var

Row | Binder | enrichment score
55 | GMTLSYLFWEP [NDUFS8_Y74_R77W] | inactive: 2.1
56 | ILGRTHFVNHE [NEDD4_Y627_Y627H_YF] | inactive: 0.937
57 | EMFNPYYGLFE [NEDD4L_Y679] | inactive: 1.32
58 | EMFNPCFGLFE [NEDD4L_Y679_Y679C_YF] | inactive: 1.02
59 | EMFNPYFGLFE [NEDD4L_Y679_YF] | inactive: 1.24
60 | MFNPYYGLFEY [NEDD4L_Y680] | inactive: 2.12
61 | MFNPFYGLFEF [NEDD4L_Y680_YF] | inactive: 3.12
62 | FQKDVYNIPPS [NEDD9_Y177_D178N_YF] | inactive: 0.627
63 | RSFLSYYTSHV [NEFL_Y442_P440L] | inactive: 1.8
64 | RSFPSYFTSHV [NEFL_Y442_YF] | inactive: 1.17
65 | SFPSYYTSHVQ [NEFL_Y443] | inactive: 0.942
66 | SFLSFYTSHVQ [NEFL_Y443_P440L_YF] | inactive: 3.09
67 | SLFNGYVYSGV [NEIL3_Y71] | inactive: 1.28
68 | SLFNGYVYSGM [NEIL3_Y71_V76M] | inactive: 1.76
69 | SLFNGYVFSGV [NEIL3_Y71_YF] | inactive: 1.15
70 | ERNTVYSSSGV [NELL2_Y350] | inactive: 0.56
71 | GASRRYGSGVS [NEU1_Y242_W240R] | inactive: 0.232
72 | SIGLGYHKDLQ [NF1_Y1169] | inactive: 0.573

Target: SHP2 N-SH2 domain T52S
Assay: as above
Conditions: peptide library: pTyr-Var

Row | Binder | enrichment score
73 | GMTLSYLFWEP [NDUFS8_Y74_R77W] | inactive: 2.42
74 | ILGRTHFVNHE [NEDD4_Y627_Y627H_YF] | inactive: 1.36
75 | EMFNPYYGLFE [NEDD4L_Y679] | inactive: 1.33
76 | EMFNPCFGLFE [NEDD4L_Y679_Y679C_YF] | inactive: 1.19
77 | EMFNPYFGLFE [NEDD4L_Y679_YF] | inactive: 1.19
78 | MFNPYYGLFEY [NEDD4L_Y680] | inactive: 2.39
79 | MFNPFYGLFEF [NEDD4L_Y680_YF] | active: 4.05
80 | FQKDVYNIPPS [NEDD9_Y177_D178N_YF] | inactive: 0.677
81 | RSFLSYYTSHV [NEFL_Y442_P440L] | inactive: 2.81
82 | RSFPSYFTSHV [NEFL_Y442_YF] | inactive: 1.19
83 | SFPSYYTSHVQ [NEFL_Y443] | inactive: 1
84 | SFLSFYTSHVQ [NEFL_Y443_P440L_YF] | inactive: 3.09
85 | SLFNGYVYSGV [NEIL3_Y71] | inactive: 0.938
86 | SLFNGYVYSGM [NEIL3_Y71_V76M] | inactive: 1.39
87 | SLFNGYVFSGV [NEIL3_Y71_YF] | inactive: 1.09
88 | ERNTVYSSSGV [NELL2_Y350] | inactive: 0.654
89 | GASRRYGSGVS [NEU1_Y242_W240R] | inactive: 0.278
90 | SIGLGYHKDLQ [NF1_Y1169] | inactive: 0.892

Target: SHP2 N-SH2 domain wild-type
Assay: as above
Conditions: peptide library: pTyr-Var

Row | Binder | enrichment score
91 | GMTLSYLFWEP [NDUFS8_Y74_R77W] | inactive: 2.75
92 | ILGRTHFVNHE [NEDD4_Y627_Y627H_YF] | inactive: 0.99
93 | EMFNPYYGLFE [NEDD4L_Y679] | inactive: 1.33
94 | EMFNPCFGLFE [NEDD4L_Y679_Y679C_YF] | inactive: 0.999
95 | EMFNPYFGLFE [NEDD4L_Y679_YF] | inactive: 0.901
96 | MFNPYYGLFEY [NEDD4L_Y680] | inactive: 1.94
97 | MFNPFYGLFEF [NEDD4L_Y680_YF] | inactive: 3.07
98 | FQKDVYNIPPS [NEDD9_Y177_D178N_YF] | inactive: 0.657
99 | RSFLSYYTSHV [NEFL_Y442_P440L] | inactive: 1.93
100 | RSFPSYFTSHV [NEFL_Y442_YF] | inactive: 0.881
101 | SFPSYYTSHVQ [NEFL_Y443] | inactive: 1.51
102 | SFLSFYTSHVQ [NEFL_Y443_P440L_YF] | inactive: 3.16
103 | SLFNGYVYSGV [NEIL3_Y71] | inactive: 0.9
104 | SLFNGYVYSGM [NEIL3_Y71_V76M] | inactive: 1.6
105 | SLFNGYVFSGV [NEIL3_Y71_YF] | inactive: 0.949
106 | ERNTVYSSSGV [NELL2_Y350] | inactive: 0.747
107 | GASRRYGSGVS [NEU1_Y242_W240R] | inactive: 0.339
108 | SIGLGYHKDLQ [NF1_Y1169] | inactive: 0.899
